Results: PubChem BioAssay AID488969 (Vanderbilt High Throughput Screening Facility, 2010)
Over roughly 110,000 compounds, “z-score” has its median near -0.1; the highest 2% begin near 2. The list shows a part of the results. Activity calls are given as the source filed them.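 How the source made its calls: active means z-score in the third read window above 3 or below -3; inactive means the rest.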

Target: Metabotropic glutamate receptor 8 (Rattus norvegicus) (UniProt P70579)
Assay: mGluR8 Gi/Go-coupled signaling modulation – cell-based, rat, thallium flux, HTS, primary screen (AID 488969)
Conditions: HEK293 rat mGluR8, GIRK (G protein-gated inwardly rectifying potassium channel) thallium flux, FluoZin2; at 10 µM; stronger effect = higher value; submaximal glutamate (EC20) added with thallium

Sequence of UniProt P70579 (P70579 whole entry, looked up): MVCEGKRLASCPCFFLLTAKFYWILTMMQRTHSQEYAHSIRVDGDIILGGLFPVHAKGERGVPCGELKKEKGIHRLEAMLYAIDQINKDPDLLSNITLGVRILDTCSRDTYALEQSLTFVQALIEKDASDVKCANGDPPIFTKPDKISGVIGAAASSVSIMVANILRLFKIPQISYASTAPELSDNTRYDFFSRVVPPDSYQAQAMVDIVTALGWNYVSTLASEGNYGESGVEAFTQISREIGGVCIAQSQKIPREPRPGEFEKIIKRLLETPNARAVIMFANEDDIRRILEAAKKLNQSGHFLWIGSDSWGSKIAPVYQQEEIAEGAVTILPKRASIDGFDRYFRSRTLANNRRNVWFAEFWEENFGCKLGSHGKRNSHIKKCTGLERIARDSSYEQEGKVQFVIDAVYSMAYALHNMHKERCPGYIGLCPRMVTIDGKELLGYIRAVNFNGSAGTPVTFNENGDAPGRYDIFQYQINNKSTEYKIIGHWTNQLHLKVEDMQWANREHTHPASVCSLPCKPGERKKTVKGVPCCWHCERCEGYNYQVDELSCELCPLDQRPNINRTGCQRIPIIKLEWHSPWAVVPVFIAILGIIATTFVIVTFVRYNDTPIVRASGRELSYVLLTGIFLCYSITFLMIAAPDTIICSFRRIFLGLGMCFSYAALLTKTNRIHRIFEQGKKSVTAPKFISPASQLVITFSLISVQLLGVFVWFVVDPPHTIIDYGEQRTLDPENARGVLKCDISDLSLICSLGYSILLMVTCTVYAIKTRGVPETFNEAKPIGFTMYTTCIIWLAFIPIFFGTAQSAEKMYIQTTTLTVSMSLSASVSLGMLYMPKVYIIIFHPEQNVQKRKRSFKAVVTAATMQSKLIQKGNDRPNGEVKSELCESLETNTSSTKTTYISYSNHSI

Compound	z-score
CCC(NC(=O)c1ccccc1O)c1ccccc1 (configuration not stated)	0.132
CCOC(=O)C1=C(c2ccccc2)NC(SC)=C(C#N)C1c1ccco1 (configuration not stated)	-2.51
Cn1c(SCC(=O)C(C)(C)C)nnc1-c1ccncc1	-0.217
COc1ccc2nc3oc(C(=O)NC4CCN(Cc5ccccc5)CC4)cc3cc2c1	1.26
CC(C)(C)NC(=O)COC(=O)c1ccc(O)cc1	-0.866
CC1CCCCN1C(=O)c1cc2nc(-c3ccccc3)cc(-c3ccccc3)n2n1 (configuration not stated)	-0.18
CCOc1cc(/C=C(\C#N)C(=O)NCC2CCCO2)ccc1O (configuration not stated)	0.286
Cc1cc2c(s1)CCCCC(=O)N2	0.0516
CCN(CC)C(=O)C1CCCN(C(=O)Nc2ccccc2)C1 (configuration not stated)	-0.241
CCOC(=O)/C=C/C(=O)Nc1ccc(S(=O)(=O)Nc2c(C)cc(C)cc2C)cc1	-0.16
CCOC(=O)N(C)c1ccc(C(O)(C(F)(F)F)C(F)(F)F)cc1	0.389
Cc1c(N/C(=N/S(=O)(=O)c2ccccc2)c2ccc(Cl)cc2)c(=O)n(-c2ccccc2)n1C	-0.38
CCOC(=O)c1ccc(NC(=O)CC2Sc3ncnn3C2=O)cc1 (configuration not stated)	-0.0772
CCC(C)NC(=O)Cn1cnc2sc(C)cc2c1=O (configuration not stated)	-0.214
COCCNC(=O)CCc1nc(-c2ccccc2)no1	-0.141
COc1ccccc1N1CCN(C(=O)c2cccc3c(=O)c(C)c(-c4ccccc4)oc23)CC1	-0.287
COc1ccc(-c2c(C#N)c(N)nc3c2CCCC3)cc1OC	0.0196
CCCNC(=O)C(=O)NCCC1=CCCCC1	-0.0122
CCCCC(O)(CCCC)C(=O)NN(C(=O)OC)c1ccccc1	-0.311
OC(COc1ccc2cc(Br)ccc2c1)CN1CCN(c2ccccn2)CC1 (configuration not stated)	-0.00684
CCN(CC)CCNS(=O)(=O)c1ccc(Cl)cc1	-0.355
Cc1cc(C)nc(N2CCCC(C(=O)NCc3cccs3)C2)n1 (configuration not stated)	-0.0389
OC1(c2ccccc2F)CCN(Cc2nnnn2CCc2ccccc2)CC1	-0.368

Compound	z-score
O=C(CN1CCc2ccccc21)NCc1ccc2c(c1)OCO2	-0.334
Cc1cccc(C)c1OCC(=O)Nc1ccc(S(=O)(=O)Nc2ccccn2)cc1	-0.0977
COc1ccc(Br)cc1CNC(=O)C1CCCN(S(C)(=O)=O)C1 (configuration not stated)	0.214
CC(C)(C=O)C1=CC(=O)c2ccccc2C1=O	-0.0423
CCOc1ccc(OCC)c(NC(=O)C2COc3ccccc3O2)c1 (configuration not stated)	-0.38
O=C(NCCc1nc2ccccc2[nH]1)/C(=C/c1ccco1)NC(=O)c1ccc(Br)o1	-0.559
COCCn1nnnc1C(c1cccc(C(F)(F)F)c1)N1CCN(Cc2ccccc2)CC1 (configuration not stated)	-0.165
O=C(/C=C/c1ccc(F)cc1)c1ccccc1Br	-0.272
Cc1cc(C)c(C)c(OCC(=O)NCC2CCCO2)c1 (configuration not stated)	0.245
OC(CSc1ccccc1Cl)CN1CCN(c2ccc(F)cc2)CC1 (configuration not stated)	-0.618
Cc1cc(NS(=O)(=O)c2ccc(NC(=O)c3cc4ccccc4o3)cc2)no1	0.0455
O=C(c1ccc(-c2cccc(Cl)c2)o1)N1CCN(c2ccc([N+](=O)[O-])cc2)CC1	-0.33
Cn1c(=O)[nH]c(=O)c2c1nc(Br)n2Cc1ccccc1F	-0.243
CN(C)C(=O)c1ccc(COc2ccccc2Br)o1	-0.279
CCN=c1scc(C)n1/N=C/c1ccsc1	-0.0195
Cc1cc(-c2csc(NC(=O)c3ccc(C#N)cc3)n2)c(C)n1Cc1ccccc1	-0.163
COCc1cc(C)nc(SCC(=O)Nc2ccc3c(c2)OCO3)c1C#N	-0.211
CCOC(=O)N1CCC(NC(=O)C2CCN(c3nc(-c4ccc(OC)cc4)no3)CC2)CC1	-0.18
Cc1ccc2nc(SCC(=O)O)nc(C)c2c1	-0.0733
Nn1c(SCC(=O)NC2CCCc3ccccc32)nnc1-c1cccs1 (configuration not stated)	-0.896
Cc1cc(C)nc(N2CCCC(C(=O)NCc3ccccc3)C2)n1 (configuration not stated)	-1.14
Cc1ccc2oc3nc(C)c(C(=O)O)cc3c(=O)c2c1	-0.396
COC(=O)c1onc(C(=O)c2ccccc2)c1C(=O)OC	active: -3.65

Compound	z-score
CCN(CC)c1ccc(NC(=O)c2nc3nc(C)cc(C(F)F)n3n2)cc1	active: 3.02
COc1ccc(CCNc2nc(N3CCCCC3)nc(N3CCCCC3)n2)cc1OC	-0.179
CC(OC(=O)CCCCCN=C1NS(=O)(=O)c2ccccc21)C(=O)Nc1cc(Cl)cc(Cl)c1 (configuration not stated)	-0.581
CCOC(=O)N1CCC(NC(=O)c2ccc3c(c2)N(CC)CCS3)CC1	-0.235
CCn1c(=O)c(=O)[nH]c2cc(C(=O)Nc3ccc(S(=O)(=O)N4CCCC4)cc3)ccc21	-0.219
CCOC(=O)Cc1nnc(NC(=O)c2ncn[nH]2)s1	0.485
COc1ccccc1N1CCN(CC(=O)Nc2ccc(CN3CCCCC3)cc2)CC1	-0.246
O=[N+]([O-])c1ccc(OC/C=C2\Oc3ccc([N+](=O)[O-])cc3C2N2CCOCC2)cc1 (configuration not stated)	-0.155
CCC(=O)Nc1nc2ccccc2n1CCN(C)C	-0.224
COCCn1c(=O)[nH]c2cc(C(=O)NC(C)C)ccc2c1=O	0.167
Cc1ccc2nc(SCc3nc4c(cnn4-c4ccccc4)c(=O)[nH]3)[nH]c2c1	-0.0689
Cc1ccccc1OCc1nc2ccc(S(=O)(=O)N3CCOCC3)cc2[nH]1	0.132
Nc1cc(=O)nc(SCC(=O)Nc2cccc3ccccc23)n1CCc1ccccc1	-0.219
O=C(c1cnccn1)N(c1ccccc1)C1(C(=O)NC2CCCCC2)CCCCC1	0.313
CCCCNC(=O)N(O)C1N(CCCC)C(=O)N(CC(=O)OC)C1(C)C (configuration not stated)	0.604
COc1cccc2cc(C(=O)N3CCN(c4ccccc4F)CC3)c(=O)oc12	-0.546
Cc1ccc(C(CC(=O)O)Nc2nc(N3CCCCC3)nc(N3CCCCC3)n2)cc1 (configuration not stated)	-0.729
O=C(NC(=O)c1ccccc1)OCC(F)(F)F	-0.338
O=c1oc(-c2ccc(Br)o2)nc2ccccc12	active: 5.63
CCOc1cc(CNn2nnnc2N)cc(Cl)c1OCC(=O)NC(C)(C)C	0.0889
C#CCSc1nc2ccccc2n1C(=O)c1ccc(S(=O)(=O)N2CCCCC2)cc1	-0.221
CCOC(=O)Cc1csc(N/C(=N/S(=O)(=O)c2ccc(Cl)cc2)c2ccccc2)n1	-0.123
COCCSc1ccccc1C(=O)Nc1ccncc1	0.236

Compound	z-score
Cc1ccsc1C=Nc1c(C)n(C)n(-c2ccccc2)c1=O	0.106
O=C1C2C3C=CC(C3)C2C(=O)N1Cc1cccnc1 (configuration not stated)	0.0453
COc1ccc(NC(=O)C2C(=O)NC3(C)CC2c2ccccc2O3)cc1 (configuration not stated)	-0.312
CN(C)S(=O)(=O)N(CC(=O)Nc1cccc(F)c1)c1ccccc1	0.587
O=C(NCc1ccco1)C1(c2ccc(Cl)cc2)CCCC1	-0.103
CNC(=O)c1ccc(OC2CSC2)cc1	0.829
O=C(NC(=S)Nc1nc(-c2ccccc2)cs1)c1cccs1	1.03
CC1=CN2C(=N)/C(=C\c3cn(CCCOc4ccccc4)c4ccccc34)C(=O)N=C2S1	-0.442
O=C(Nc1cccnc1)c1cccc(S(=O)(=O)N2CCOCC2)c1	0.00196
CCOC(=O)c1c(-c2ccccc2)csc1NC(=S)NC	active: 7.44
O=S(=O)(c1ccc(Br)cc1)n1c(Cc2ccccc2)nc2ccccc21	0.0838
Brc1cccc(Cn2c(-c3cncs3)nc3ccccc32)c1	-0.0297
Cc1nn(C)c(C)c1NC(=O)Nc1cccc(C(F)(F)F)c1	-0.0638
COc1cccc(OC)c1C(=O)NC(=S)Nc1ccc2c(c1)Cc1ccccc1-2	0.243
Cc1ccc(NC(=S)Nc2c(C)n(C)n(-c3ccccc3)c2=O)cc1	0.0715
CCCn1c(SCC(=O)N2c3ccc(F)cc3CCC2C)nnc1-c1ccccn1 (configuration not stated)	-0.821
CCCN(CC1CC1)C(=O)CSc1nnc(-c2cc(-c3cccs3)nc3ccccc23)o1	-0.177
C=CCc1c(C)nc(C)nc1N/N=C/c1ccccc1	-0.683
CCCCC1CC(CSc2ncn[nH]2)OC1=O (configuration not stated)	-0.0735
CC(C)Cc1ccc(C(C)C(=O)OCC(=O)c2c[nH]c3ccccc23)cc1 (configuration not stated)	0.102
CN(C)CCNC(=O)c1cc2c(=O)n(C)c3ccccc3c2n1C	0.703
CC(=O)Nc1ccc(S(=O)(=O)NNC(=O)c2ccc(S(=O)(=O)N3CCCCC3)cc2)cc1	0.179
COc1ccc2cc(C(=O)OC(C)C)sc(=O)c2c1OC	-0.229

Compound	z-score
CCCCC(CC)C(=O)Nc1ccccc1C(=O)NC(C)C (configuration not stated)	-0.0261
Cc1noc(C)c1S(=O)(=O)N1CCCC(C(=O)N2CCc3ccccc3C2)C1 (configuration not stated)	-0.336
CCOc1nnnc2c1sc1nc(N3CCOCC3)c3c(c12)CC(C)(C)OC3	0.0677
CCOC(=O)N1CCN(Cc2ccccn2)CC1	0.486
COc1ccc(OC)c2c1sc(=NC(=O)C(C)C)n2C	-0.638
O=C(NCN1C(=O)C2C3C=CC(C3)C2C1=O)Nc1nccs1 (configuration not stated)	0.00383
CCn1c(COc2ccc3c(c2)OCO3)nnc1SCC(=O)c1ccccc1	0.465
COc1ccc(OC)c(C2CC(=O)c3c([nH]c(C(=O)OC(C)C)c3C)C2)c1 (configuration not stated)	-0.417
CCOC(=O)c1c(-c2cccs2)csc1NC(=O)CN1CC(C)OC(C)C1 (configuration not stated)	0.866
COc1cc([N+](=O)[O-])ccc1NC(=O)COC(=O)c1n[nH]c2ccccc12	-0.589
CCOC(=O)c1c(-c2cccs2)csc1NC(=O)CCCC(=O)O	0.175
COCCn1c(=S)[nH]c2ncccc2c1=O	0.35
CC(OC(=O)c1ccccc1Nc1ccc(SC(F)F)cc1)C(N)=O (configuration not stated)	-0.225
CNc1ncc(C(=O)c2ccc(Cl)c(Cl)c2)s1	0.129
O=S(=O)(Cc1ccccc1Cl)NCCOc1ccccc1	1.83
FC(F)(F)C1=CC(c2ccc(Cl)cc2)=NCCN1	0.132
CCCCNS(=O)(=O)c1ccc(NC(=O)c2c(-c3ccccc3Cl)noc2C)cc1	0.0339
CCOC(=O)N1CCN(C(=S)Nc2ccccc2C)CC1	0.316
OCCNc1ncnc2ccc(Br)cc12	1.8
O=C(CC1Oc2ccccc2NC1=O)NCCCN1CCN(Cc2ccccc2)CC1 (configuration not stated)	-0.0767
